Data: PubChem BioAssay AID463173 (ICCB-Longwood Screening Facility, Harvard Medical School, 2010)
Out of some 52,000 compounds screened, about 4,300 (8.3%) were called active. Cut-off read from the data, not from the text of the source: active = survival mostly below about 52% (no sharp cut-off); inactive = mostly above about 56%. This is one part of the list.

test system: DeltatarO mutant; assay: growth inhibition of S. aureus wild type versus tarO mutant, primary screen, teichoic acid synthesis inhibitors, RN4220, OD600 (AID 463173); conditions: OD600, 18 h, active compounds read low, screened at 18.75 µg/mL (by protocol)

| Structure (SMILES) | survival |
| --- | --- |
| C#CCOc1ccc(-c2nnc(Nc3cccc(C)c3)c3ccccc23)cc1 | active: 31% |
| Cc1ccc(NS(=O)(=O)c2ccc3[nH]c(=O)ccc3c2)cc1N(C)C | inactive: 66% |
| COc1ccc(-c2ccc(=O)n(CC(=O)Nc3ccc(C)cc3C)n2)cc1 | inactive: 81% |
| COc1ccc(-c2noc(CCC(=O)NCc3ccc(C)cc3)n2)cc1 | inactive: 103% |
| O=c1n(Cc2cccc(C(F)(F)F)c2)c2ccccc2c2nc(-c3ccccc3)nn12 | inactive: 80% |
| Cc1ccc(-c2ccc(CCC(=O)O)n2-c2cccc(O)c2)cc1 | inactive: 68% |
| CCOC(=O)c1cccc(NC(=O)Cn2ncc3c4ccccc4n(Cc4ccccc4)c3c2=O)c1 | inactive: 88% |
| Cc1ccc(CNC(=O)CCCCCn2c(=O)c3sccc3n(CC(=O)N(C)c3ccccc3)c2=O)cc1 | inactive: 82% |
| Cc1ccc(C(=O)Nc2ccc3oc(-c4ccc(C(C)(C)C)cc4)nc3c2)cc1 | inactive: 70% |
| CCCN1C(=O)C(NC(C)=O)c2cc(C)ccc21 (stereo not drawn) | inactive: 89% |
| CCn1c(=O)cc(SCC(=O)NCCc2ccc(Cl)cc2)c2ccccc21 | inactive: 76% |
| CCOC(=O)C1CCC(CN(Cc2ccc(Cl)cc2)S(=O)(=O)c2ccc(F)c(C(=O)Nc3cccc(F)c3)c2)CC1 (stereo not drawn) | inactive: 92% |
| COc1ccc(/C=C/C(=O)Nc2sc3c(c2C(N)=O)CCCC3)cc1 | inactive: 58% |
| COc1cccc2sc(=NC(=O)c3ccc(S(=O)(=O)N4CCCCC4)cc3)n(C)c12 | inactive: 101% |
| CCOC(=O)c1cnc(NCc2ccccc2OC)c2ccccc12 | inactive: 89% |
| COc1ccc(S(=O)(=O)N2CCCCC2)cc1C(=O)Nc1cccc(C(F)(F)F)c1 | inactive: 86% |
| COc1ccccc1Nc1cc(C(=O)NC2CCCC2)c2ccccc2n1 | inactive: 77% |
| CCn1cc(C(=O)NCc2ccccc2OC)c(=O)c2cc(S(=O)(=O)N3CCCCC3)ccc21 | inactive: 89% |
| COc1ccccc1CN1COc2ccc3c(oc(=O)c4ccccc43)c2C1 | inactive: 78% |
| COc1ccc(-n2nc3c(N4CCCC(C(=O)NCc5cccc(F)c5)C4)nnc(C)c3c2C)cc1 (stereo not drawn) | inactive: 94% |
| COc1ccc(Cn2c(C(=O)O)c(CNCCc3cccs3)c3ccc(C)cc32)cc1 | inactive: 78% |
| COc1ccccc1CNC(=O)c1ccc2c(c1)N(Cc1cccc(Cl)c1)C(=O)c1ccccc1S2(=O)=O | active: 37% |

| Structure (SMILES) | survival |
| --- | --- |
| Cc1ccc(Cn2c(C(=O)O)c(CNC3CCCCCC3)c3ccc(C)cc32)cc1 | inactive: 71% |
| Cc1ccc(NC(=O)Cn2c(=O)n(CCC(=O)N3CCc4ccccc4C3)c(=O)c3ccccc32)cc1 | inactive: 76% |
| Cc1cc(C)cc(S(=O)(=O)Nc2cccc(-c3ccc(N4CCOCC4)nn3)c2)c1 | inactive: 86% |
| CC(=O)c1ccc(NC(=O)Cn2c(=O)c3cccn3c3ccccc32)cc1 | active: 42% |
| CC(C)(C)C(=O)NCCc1nc2ccccc2n1CCCCOc1ccc(Cl)cc1 | active: 18% |
| Cn1c(=O)c2c([nH]c(=O)n2Cc2ccc(Cl)cc2Cl)n(C)c1=O | active: 42% |
| Cc1ccc2c(c1)-c1nc(-c3ccc4c(c3)NC(=O)CO4)cc(-c3ccc(Cl)cc3)c1CO2 | inactive: 102% |
| Cc1ccc2nc(N3CCN(C(=O)C4CC4)CC3)sc2c1 | inactive: 88% |
| Cc1ccc(NS(=O)(=O)c2ccc3nc(-c4ccccc4)[nH]c3c2)c(Cl)c1 | inactive: 76% |
| CC1CCCN(CCCNC(=O)c2cn(C)c3ccc(S(=O)(=O)N(C)C4CCCCC4)cc3c2=O)C1 (stereo not drawn) | inactive: 93% |
| Cc1ccc(C)c(OCCn2cc(C(=O)c3ccco3)c3ccccc32)c1 | inactive: 104% |
| CCn1c(CNC(=O)C23CC4CC(CC(C4)C2)C3)nnc1SCC(=O)Nc1ccccc1 | inactive: 66% |
| COc1cccc(CNC(=O)c2cc3c(s2)-c2c(C)cccc2OC3)c1 | inactive: 68% |
| COc1ccc(-c2nc(CNS(=O)(=O)c3ccccc3)cs2)cc1 | inactive: 106% |
| Cc1oc2ncn(C)c(=O)c2c1C(=O)N1CCN(c2ccccc2)CC1 | inactive: 103% |
| O=C(Oc1ccc(F)cc1)c1nc(SCc2ccccc2F)ncc1Cl | inactive: 75% |
| COc1ccccc1C(=O)NC1(C(F)(F)F)C(=O)Nc2c1c(=O)[nH]c(=O)n2-c1ccccc1 (stereo not drawn) | inactive: 78% |
| O=C(Nc1ccc(Cl)cc1Cl)c1cc(S(=O)(=O)N2CCc3ccccc32)ccc1F | inactive: 82% |
| Cc1cccc(N2CCN(C(=O)c3c(C)oc4ncnc(N5CCCCC5)c34)CC2)c1C | inactive: 76% |
| Cc1ccc(C)c(Nc2nc3c(S(=O)(=O)c4ccc(C(C)C)cc4)nnn3c3ccsc23)c1 | inactive: 55% |
| CCOC(=O)c1noc2nc(C)n(CC(=O)Nc3ccccc3F)c(=O)c12 | inactive: 122% |
| CCOC(=O)c1ccccc1NC(=O)c1cc2c(=O)oc3ccc(C)cc3c2s1 | inactive: 72% |

| Structure (SMILES) | survival |
| --- | --- |
| CC1=C(C(=O)N2CCN(c3cccc(C(F)(F)F)c3)CC2)C2(CCCCC2)OC1=O | inactive: 124% |
| COC(=O)c1c(Oc2ccc(C(C)=O)cc2)nnc(-c2ccccc2)c1-c1ccccc1 | inactive: 64% |
| COc1ccccc1CNC(=O)CN1C(=O)CSc2ccc(S(=O)(=O)N3CCCCC3)cc21 | inactive: 74% |
| COc1ccc(OC)c(-n2cnc3cc(C(=O)NC4CCCCCC4)ccc32)c1 | inactive: 87% |
| COc1ccccc1NC(=O)c1cnc(SCC(=O)N2CCCc3ccccc32)n(C)c1=O | inactive: 76% |
| CC(C)CN(CCCNC(=O)CN1C(=O)CSc2ccc(S(=O)(=O)N3CCOCC3)cc21)CC(C)C | inactive: 88% |
| CCOc1ccc(CNC(=O)CSc2nnc(C)c3c(C)n(-c4ccccc4)nc23)cc1 | inactive: 82% |
| COc1ccc(C(C(=O)NC2CCCC2)N(C(=O)c2ccco2)c2ccc(NC(C)=O)cc2)cc1OC (stereo not drawn) | inactive: 86% |
| Cc1ccccc1CCNC(=O)c1ccc2c(c1)c(C)c(C)n2Cc1ccccc1 | inactive: 102% |
| COc1ccc(S(=O)(=O)n2ccnc2)cc1C(C)(C)C | inactive: 68% |
| CCc1ccccc1N1C(=O)N(Cc2ccccc2C)c2ccccc2S1(=O)=O | inactive: 84% |
| COc1ccc(OC)c2sc(N3CCN(C(=O)C4CC4)CC3)nc12 | active: -5% |
| CCOC(=O)c1c(S(=O)(=O)N2CCCC(C(=O)N(C)Cc3ccccc3)C2)c(C)n(C)c1C (stereo not drawn) | inactive: 92% |
| COc1cc(NC(=O)Cn2ccn(Cc3ccccc3OC)c(=O)c2=O)cc(OC)c1 | inactive: 52% |
| COC(=O)c1cc2c(cc1NC(=O)c1c(C)nn(-c3ccc(C)cc3)c1-n1cccc1)OCO2 | inactive: 99% |
| Cc1cccc(-n2c(-c3ccco3)nc3c(cnn3-c3ccccc3C)c2=O)c1 | inactive: 132% |
| Cc1ccc(C(c2sc3nc(-c4ccco4)nn3c2O)N2CCOCC2)cc1 (stereo not drawn) | inactive: 80% |
| O=C(CN1CCN(Cc2ccc(F)cc2Cl)S1(=O)=O)Nc1ccc(F)cc1 | inactive: 134% |
| Clc1cc2c(cc1Cl)Nc1cc(Cl)c(Cl)cc1N2 | inactive: 70% |
| Cc1ccc(Cn2nc(C)c(NC(=O)c3cc(-c4ccc(F)cc4)on3)c2C)cc1 | inactive: 61% |
| Cc1nn(C(=O)c2ccccc2)c(C)c1Sc1ccc(Cl)cc1 | active: 10% |
| CCOc1ccc(NC(=O)Cn2c(=O)oc3cc(S(=O)(=O)NC4CCCC4)ccc32)cc1 | inactive: 69% |

| Structure (SMILES) | survival |
| --- | --- |
| Cc1ccc(NC(=O)Cn2c(C)cc(C)c(C#N)c2=O)cc1 | inactive: 94% |
| Cc1cccc(Cn2c(C)c(C)c3cc(C(=O)NCc4ccco4)ccc32)c1 | inactive: 94% |
| COC(=O)CN(c1ccccn1)S(=O)(=O)c1ccccc1 | inactive: 103% |
| CC(=O)Nc1ccccc1OCc1cc(=O)n2c3c(sc2n1)CCCC3 | inactive: 120% |
| Cn1c2ccccc2c2cnn(CC(=O)NCc3ccc(Cl)cc3)c(=O)c21 | inactive: 84% |
| COc1ccc2[nH]c(=O)c(CN(C(=O)c3cccc(Cl)c3)c3ccccc3OC)cc2c1 | inactive: 78% |
| CS(=O)(=O)N1CCc2cc(S(=O)(=O)NCc3ccccc3Cl)ccc21 | inactive: 96% |
| COc1ccc(S(=O)(=O)NCCc2csc3nc(-c4ccc(Cl)cc4)nn23)cc1C | inactive: 95% |
| COc1ccc(-c2nc(Cn3c(SCc4cccc(Cl)c4)nc4ccncc43)c(C)o2)cc1 | inactive: 84% |
| Cn1cnc(S(=O)(=O)N2CCC(C(=O)NCc3ccccc3)CC2)c1 | inactive: 74% |
| CC1=C(c2ccc(F)cc2)S(=O)(=O)N=C1N1CCC(C(=O)NCCc2ccco2)CC1 | inactive: 120% |
| Cc1ccc(Sc2c(C)nn(C(=O)COc3ccccc3)c2C)cc1 | active: 25% |
| CCOc1ccc(CCNC(=O)c2cn(C)c3ccc(S(=O)(=O)N4CCOCC4)cc3c2=O)cc1OCC | active: 56% |
| Cc1cc(NS(=O)(=O)c2ccc(NC(=O)c3ccccc3F)cc2)nc(C)n1 | inactive: 57% |
| COc1ccccc1N1CCN(CC(=O)c2ccc(F)cc2)CC1 | inactive: 89% |
| Cc1ccccc1NC(=O)C1CCC(CNS(=O)(=O)c2ccc3c(c2)C(C)(C)C(=O)N3C)CC1 (stereo not drawn) | inactive: 50% |
| O=C(CSc1nnc(Cc2ccccc2)o1)c1ccccc1 | inactive: 67% |
| COc1ccc(OCc2ccc(-c3nc(C#N)c(N4CCC(C)CC4)o3)o2)cc1 | inactive: 54% |
| O=c1oc(-c2ccco2)nc2ccccc12 | inactive: 64% |
| CCc1ccc(S(=O)(=O)c2nnn(-c3ccc(F)cc3)c2N)cc1 | inactive: 85% |
| Cc1ccc(NC(=O)c2ccc3snnc3c2)cc1Cl | inactive: 109% |
| C=C(C)Cn1c(SCC(=O)Nc2cc(C)ccc2C)nc2sc3c(c2c1=O)CCCC3 | inactive: 138% |
